Source: article PMC4336329 (PLoS ONE, 2015)
In all, about 310,000 compounds went through this assay and about 2,200 (0.71%) showed an effect of 50% or more. The effect is printed as a negative number. The list shows a part of the results.

These compounds were tested against human ether-à-go-go-related gene (hERG) potassium channel (human, UniProt Q12809) (assay: primary screen, population patch clamp on CHO cells stably expressing hERG).
Chain of human ether-à-go-go-related gene (hERG) potassium channel (Q12809 whole entry, looked up): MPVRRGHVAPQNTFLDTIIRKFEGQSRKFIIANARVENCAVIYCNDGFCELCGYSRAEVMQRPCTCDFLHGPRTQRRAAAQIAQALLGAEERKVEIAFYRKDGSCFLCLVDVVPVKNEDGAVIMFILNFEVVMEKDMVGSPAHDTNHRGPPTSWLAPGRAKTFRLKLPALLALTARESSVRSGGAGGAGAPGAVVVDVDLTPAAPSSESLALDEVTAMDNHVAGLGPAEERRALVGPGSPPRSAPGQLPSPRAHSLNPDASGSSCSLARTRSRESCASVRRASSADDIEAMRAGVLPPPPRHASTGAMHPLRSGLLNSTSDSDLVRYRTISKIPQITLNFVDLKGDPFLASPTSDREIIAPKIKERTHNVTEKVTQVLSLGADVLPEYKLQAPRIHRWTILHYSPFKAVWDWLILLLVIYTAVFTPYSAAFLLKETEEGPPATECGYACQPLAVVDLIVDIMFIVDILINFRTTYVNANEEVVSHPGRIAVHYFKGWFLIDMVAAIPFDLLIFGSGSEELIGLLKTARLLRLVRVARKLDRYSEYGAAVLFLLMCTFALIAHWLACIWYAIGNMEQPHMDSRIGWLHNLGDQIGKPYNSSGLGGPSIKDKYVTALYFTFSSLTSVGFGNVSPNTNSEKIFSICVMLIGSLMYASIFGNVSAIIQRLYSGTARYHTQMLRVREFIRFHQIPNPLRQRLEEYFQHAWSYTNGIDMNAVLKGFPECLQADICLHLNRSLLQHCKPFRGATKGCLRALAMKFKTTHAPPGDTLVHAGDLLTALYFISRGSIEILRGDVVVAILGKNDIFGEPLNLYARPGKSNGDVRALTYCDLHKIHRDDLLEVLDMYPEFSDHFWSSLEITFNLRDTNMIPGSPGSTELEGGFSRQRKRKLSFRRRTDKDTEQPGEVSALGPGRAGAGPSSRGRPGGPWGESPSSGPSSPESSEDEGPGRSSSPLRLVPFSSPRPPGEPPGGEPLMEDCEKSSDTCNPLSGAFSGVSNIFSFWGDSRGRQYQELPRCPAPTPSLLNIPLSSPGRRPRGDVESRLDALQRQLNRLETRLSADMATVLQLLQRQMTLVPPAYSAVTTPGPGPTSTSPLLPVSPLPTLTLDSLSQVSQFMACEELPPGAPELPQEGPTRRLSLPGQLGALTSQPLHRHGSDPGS

Going from `CC1CCc2nc3ccc(S(=O)(=O)N4CCC(C(=O)N5CCCCC5)CC4)cc3c(C(=O)O)c2C1` (centres unmarked) to `O=C(c1ccccn1)N1CCCC(N2CCN(Cc3ccc4c(c3)OCO4)CC2)C1` (centres unmarked), the “hERG current change (%, negative = inhibition) at 1uM” value falls from 9.21% to 0.78%.

Compared with `CCCOc1ccc(C(=O)OCCN2CCCCC2)c(O)c1.Cl`, `Cl.N=c1n(CCO)c2ccccc2n1CCN1CCCCC1` is higher in “hERG current change (%, negative = inhibition) at 1uM” value: -3.03% for the first, 10.9% for the second.

Going from `CC(NC(=O)c1cccs1)C(=O)NC1=NCCS1` (centres unmarked) to `O=C(NOC(=O)c1ccccc1Cl)c1cccs1`, the “hERG current change (%, negative = inhibition) at 1uM” value falls from 6.35% to 1.96%.

First: CCC(C(=O)OC(C)C)c1ccc2ccccc2c1 (centres unmarked)
Second: Cc1cccc(Nc2ccccc2C(=O)O)c1C
The “hERG current change (%, negative = inhibition) at 1uM” value of the first is higher: 9.68% for the first, 5.1% for the second.

Compared with `COc1cccc(Nc2ncnc3c2cnn3-c2cccc(C)c2)c1`, `O=C(Oc1cccc(Nc2ncnc3ccccc23)c1)c1cccnc1` is higher in “hERG current change (%, negative = inhibition) at 1uM” value: 1.57% for the first, 8.31% for the second.

First: CC(C)N(CCn1c(=S)[nH]c2ccccc2c1=O)C(C)C
Second: NC(=O)c1ccccc1NC(=O)CSc1nc2ccccc2c(=O)[nH]1
The “hERG current change (%, negative = inhibition) at 1uM” value of the first is lower: -14% for the first, 18.2% for the second.

Going from `COc1ccc(OC)c(NC(=O)[C@@]2(CC(=O)O)CC(/C=C/c3ccccc3)=NO2)c1` to `COc1ccc(CNC(=O)Cc2ccc(-c3ccccc3)cc2)cc1OC`, the “hERG current change (%, negative = inhibition) at 1uM” value falls from 15.9% to 14.3%.

Compared with `CCOc1cc(C=C2C(=O)NC(=O)NC2=O)ccc1OS(=O)(=O)c1ccccc1`, `COc1ccccc1C(=O)Nc1cc2cc(Br)ccc2oc1=O` is higher in “hERG current change (%, negative = inhibition) at 1uM” value: -0.821% for the first, 10.1% for the second.

First: COc1cccc(C(=O)Nc2ccc(NC(=O)C3C4C=CC(C4)C3C(=O)O)cc2)c1 (centres unmarked)
Second: COc1ccccc1NS(=O)(=O)c1cc(NC(=O)Nc2cccc(C)c2)ccc1N1CCCCC1
The “hERG current change (%, negative = inhibition) at 1uM” value of the first is higher: 15.4% for the first, 8.08% for the second.

Going from `COC(=O)CNC(=O)C12CC3CC(C1)CC(c1ccc(C)cc1)(C3)C2` to `Cc1ccc(OCCC(=O)OCC(=O)Nc2cc(C)cc(C)c2)cc1`, the “hERG current change (%, negative = inhibition) at 1uM” value rises from 16.3% to 19.2%.

Going from `Cc1ccc(C(=O)Nc2ccccc2Sc2ccccc2)cc1` to `CCCC(/C=C/c1ccc(OC(C)=O)cc1)=C1/c2ccccc2C(=O)N1c1ccccc1`, the “hERG current change (%, negative = inhibition) at 1uM” value rises from 11.1% to 11.3%.

Compared with `O=C1OCC(CO)(CO)N=C1NNc1ccc(Cl)c(Cl)c1`, `CC(C)N1CC(C(=O)Nc2ccc(Cl)c(Cl)c2)CC1=O` (centres unmarked) is lower in “hERG current change (%, negative = inhibition) at 1uM” value: 11.4% for the first, 5.01% for the second.

Going from `C/C(=N\Nc1ccc([N+](=O)[O-])cc1)c1ccc2c(c1)OCO2` to `Clc1ccc(-c2nc3ncccn3c2Nc2ccc3c(c2)OCO3)cc1`, the “hERG current change (%, negative = inhibition) at 1uM” value rises from 2.1% to 14.8%.

Compared with `NS(=O)(=O)c1ccc(N/N=C/C=C/c2ccccc2[N+](=O)[O-])cc1`, `COc1ccccc1/C=C/C=N/n1c(-c2ccc(F)cc2)n[nH]c1=S` is lower in “hERG current change (%, negative = inhibition) at 1uM” value: 9.35% for the first, 8.39% for the second.

Compared with `COCCN1C(=O)Cc2c1nc(N)c1c(N)nc(N3CCN(c4ccc(F)cc4)CC3)c(C#N)c21`, `O=C(O)c1cc(-c2ccc(N3CCOCC3)cc2)nn1-c1ccc(F)cc1` is lower in “hERG current change (%, negative = inhibition) at 1uM” value: 7.15% for the first, 5.3% for the second.

Going from `Cc1occc1-c1nnc(SCC(=O)c2c(N)n(C3CC3)c(=O)[nH]c2=O)n1C` to `Cc1ccc(-n2ccnc2SCC(=O)N(CC(C)C)C2CCS(=O)(=O)C2)c(C)c1` (centres unmarked), the “hERG current change (%, negative = inhibition) at 1uM” value falls from 2.57% to -3.07%.

Compared with `COc1ccc(C2C(C(=O)NCc3ccco3)CCC(=O)N2c2ccc(OC)cc2)cc1` (centres unmarked), `CCCCNC(=O)C1c2cc(OC)c(OC)cc2C(=O)N(C)C1c1ccc(OC)cc1` (centres unmarked) is lower in “hERG current change (%, negative = inhibition) at 1uM” value: 14.8% for the first, 8.09% for the second.

Compared with `C/C(=N\N=c1/sc2ccccc2n1C)c1ccccn1`, `Oc1c(C=Nc2ccccc2)sc(=S)n1Cc1ccccc1` is higher in “hERG current change (%, negative = inhibition) at 1uM” value: 6.92% for the first, 8.21% for the second.

First: COc1ccccc1-n1c(SCC(=O)N2CCOCC2)nc(O)cc1=O
Second: CC(NC(=O)c1ccc(Cl)cc1Cl)C(c1ccccc1)N1CCOCC1 (centres unmarked)
The “hERG current change (%, negative = inhibition) at 1uM” value of the first is lower: -13.9% for the first, 12.9% for the second.

Going from `O=c1cc(-c2ccc(O)cc2)oc2c(C3O[C@H](CO)[C@@H](O)[C@H](O)[C@H]3O)c(O)cc(O)c12` (some centres unmarked) to `O=C(Cn1c(=O)n(CC2CCCO2)c(=O)c2ccccc21)c1ccc(Cl)c(Cl)c1` (centres unmarked), the “hERG current change (%, negative = inhibition) at 1uM” value rises from 9.69% to 9.74%.

Going from `Fc1ccc(NC(=S)N2CCCC2)cc1` to `COc1ccc(NC(=O)C(C)N2c3cccc4cccc(c34)S2(=O)=O)cc1OC` (centres unmarked), the “hERG current change (%, negative = inhibition) at 1uM” value rises from 6.91% to 12.9%.

Going from `Cc1cccc(C)c1NC(=O)C1c2cccc[n+]2CC(=O)N1Cc1cccs1.[I-]` (centres unmarked) to `COc1ccc(NC(=O)Cn2nnc(C(=O)NCc3cccs3)c2N)cc1Cl`, the “hERG current change (%, negative = inhibition) at 1uM” value falls from 9.44% to -10.6%.
